{"source": "PubChem BioAssay AID485364", "about": "(National Center for Advancing Translational Sciences (NCATS), 2010)", "note": "The whole screen tested about 360,000 compounds, of which about 11,000 (3.1%) were called active. The inconclusive results got no clear call from the source; some entries with a clear call stand among them for comparison. Calls come from the whole dose curve; as a rule, active = well fitted inhibition curve with a large enough effect; inconclusive = small, poorly fitted or top-dose-only effect; inactive = no such curve, though single readings can be large or run the other way. Potencies of inconclusive entries are left out as doubtful fits. % is set by controls: 0 for no effect and ±100 for the full control effect; potency is the fitted concentration of half-maximal effect; tags give direction and shape of the fitted curve."}
{"target": "Schistosoma mansoni thioredoxin glutathione reductase (TGR) (UniProt Q962Y6)", "test": "qHTS Assay for the Inhibitors of Schistosoma Mansoni Peroxiredoxins; note: nearly all actives have a fitted effect of over 60% in size", "conditions": "purified TGR, DTNB reduction, TNB absorbance 405 nm; activity change, negative = inhibition: at 114 µM (top of the series) unless noted", "method_in_brief": "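First, TGR (20 nM dispensed) and NADPH were mixed with compound. Second, a 15 min room-temperature incubation followed. Third, further NADPH and then DTNB were added to start the reaction. Finally, TNB absorbance was monitored kinetically.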"}
{"smiles": "CCOc1cc(C=C2C(=O)NC(=O)NC2=O)ccc1OCC(=O)N1CCOCC1", "Potency": "inconclusive [inhibitor, full curve]"}
{"smiles": "N#Cc1cc(F)c(N2CCNCC2)cc1Cl", "Potency": "inconclusive [inhibitor, partial curve]"}
{"smiles": "C/C=C/C=C/[C@H]1Cc2cc(O)cc(O)c2O1", "Potency": "inconclusive [inhibitor, full curve]"}
{"smiles": "CC(C)OCCCNC(=O)c1c(N)n(/N=C/c2ccccn2)c2nc3ccccc3nc12", "activity change, negative = inhibition": "inactive: -0.359%"}
{"smiles": "CCOC(=O)N1CCc2c(sc3c2c(=O)n(-c2ccc(CC)cc2)c(=O)n3Cc2cc(C)ccc2C)C1", "Potency": "inconclusive [inhibitor, single point]"}
{"smiles": "Cc1nc2ccc(NC(=S)NC3CCCCC3)cc2nc1C", "Potency": "inconclusive [inhibitor, full curve]"}
{"smiles": "CCCSc1nc(C)c2cc(C)cc(C)c2n1", "Potency": "inconclusive [inhibitor, single point]"}
{"smiles": "CCOC(=O)N1CCC(N2C(=O)c3ccc(C(=O)NCc4ccco4)cc3C2=O)CC1", "Potency": "inconclusive [inhibitor, partial curve]"}
{"smiles": "O=S(=O)(c1ccc(F)cc1)c1snnc1-c1ccccc1", "Potency": "active: 35.5 µM"}
{"smiles": "O=C(NCCOc1ccccc1)C1CCCN1C(=O)c1cccs1", "note": "(stereo not drawn)", "Potency": "inconclusive [inhibitor, full curve, poor fit]"}
{"smiles": "COc1cc(OC)cc(N2C(=O)CC(N3CCC(C(=O)N4CCCCC4)CC3)C2=O)c1", "note": "(stereo not drawn)", "Potency": "inconclusive [inhibitor, partial curve]"}
{"smiles": "CN1CCN(Cc2ccc(-c3ccc(Cl)cc3)o2)CC1", "Potency": "inconclusive [inhibitor, partial curve, poor fit]"}
{"smiles": "Cc1ccc(C(=O)Nc2oc(-c3ccccc3)cc2C#N)cc1", "Potency": "inconclusive [inhibitor, partial curve, poor fit]"}
{"smiles": "COC(CNC(=O)c1cc(C)nn1-c1ccccc1)OC", "Potency": "inconclusive [inhibitor, full curve, poor fit]"}
{"smiles": "CCS(=O)(=O)c1nc(S(=O)(=O)c2ccc(Cl)cc2)c(N2CCOCC2)s1", "Potency": "active: 22.4 µM"}
{"smiles": "CCN1C=C(Cc2ccccc2C)C2=C(C1)C(c1ccccc1C)C(C#N)=C(N)O2", "note": "(stereo not drawn)", "Potency": "active: 44.7 µM"}
{"smiles": "COc1ccc(NC(=O)c2cccc(S(=O)(=O)NCc3ccco3)c2)c(OC)c1", "Potency": "inconclusive [inhibitor, partial curve]"}
{"smiles": "COC(=O)[C@@H]1[C@@H](C#N)C2(c3ccccc3-c3ccccc32)N(c2ccc(Cl)cc2)N1C#N", "Potency": "inconclusive [inhibitor, full curve, poor fit]"}
{"smiles": "Cc1ccc(CNC(=O)CSCc2nc(-c3cccc(C)c3)oc2C)cc1", "Potency": "inconclusive [inhibitor, single point]"}
{"smiles": "S=C=Nc1cccc(C2(N3CCCCC3)CCCCC2)c1", "Potency": "inconclusive [inhibitor, partial curve]"}
{"smiles": "O=C(N/N=C/c1ccc([N+](=O)[O-])s1)c1ccncc1", "Potency": "inconclusive [inhibitor, full curve, poor fit]"}
{"smiles": "O=C(NCCCN1CCOCC1)[C@@H]1CSC2c3ccccc3C(=O)N21", "note": "(stereo partly drawn)", "Potency": "inconclusive [inhibitor, single point]"}
{"smiles": "Cc1ccc(-n2cnc3cc(C(=O)NCCC4=CCCCC4)ccc32)cc1Cl", "Potency": "inconclusive [inhibitor, single point]"}
{"smiles": "CC(C)(C)[C@H]1C=C(C(=O)N2CCN(Cc3ccccc3)CC2)O[C@@H](OCCCCO)C1", "Potency": "inconclusive [inhibitor, partial curve]"}
{"smiles": "Cc1sccc1C1C(C#N)=C(N)SC(N)=C1C#N", "Potency": "inconclusive [inhibitor, partial curve, poor fit]"}
{"smiles": "O=S(=O)(NC(=S)NC1CCCCC1)c1ccccc1", "Potency": "inconclusive [inhibitor, partial curve]"}
{"smiles": "C/C(=N\\NC(=O)c1cccc([N+](=O)[O-])c1)c1ccncc1", "activity change, negative = inhibition": "inactive: -4.87%"}
{"smiles": "CC(C)C1Cc2c(sc(NC(=S)NC(=O)c3ccccc3)c2C#N)CO1", "note": "(stereo not drawn)", "Potency": "inconclusive [inhibitor, partial curve]"}
{"smiles": "CCOc1ccccc1N1C(=O)CC(=O)NC1=O", "Potency": "inconclusive [inhibitor, full curve, poor fit]"}
{"smiles": "Cc1cc(/C=C2/NC(=O)NC2=O)c(C)n1-c1ccc(C#N)cc1", "Potency": "inconclusive [inhibitor, single point]"}
{"smiles": "CCCCOC(=O)c1ccc(Nc2nc3ccc(C(=O)c4ccccc4)cc3n3cnnc23)cc1", "activity change, negative = inhibition": "inactive: -1.9%"}
{"smiles": "Cc1ccc(C(=O)OC(C)CN2CCN(C)CC2)cc1", "note": "(stereo not drawn)", "activity change, negative = inhibition": "inactive: -1.77%"}
{"smiles": "CCOC(=O)C1(Cc2cccc(Cl)c2)CCCN(C(=O)c2ccco2)C1", "note": "(stereo not drawn)", "Potency": "inconclusive [inhibitor, partial curve]"}
{"smiles": "CCOc1ccc(NC(=O)CNC(=O)c2nn(-c3ccc(OC)cc3)c(=O)c3ccccc23)cc1", "activity change, negative = inhibition": "inactive: -0.754%"}
{"smiles": "COC(=O)c1ccc2[nH]c([C@H](C)O)c([C@H](C)O)c2c1", "Potency": "inconclusive [inhibitor, partial curve]"}
{"smiles": "COc1ccc(OC)c(C2NC(=O)NC(C)=C2C(=O)OC2CCCCC2)c1", "note": "(stereo not drawn)", "Potency": "inconclusive [inhibitor, full curve, poor fit]"}
{"smiles": "Cc1ccc(NC(=O)CCC(=O)c2cccs2)c(O)c1", "activity change, negative = inhibition": "inactive: -1.75%"}
{"smiles": "O=c1c2nncn2ccn1-c1ccc(F)c(F)c1", "activity change, negative = inhibition": "inactive: 1.83%"}
{"smiles": "O=C(NC(Cc1ccccc1)C(=O)O)/C(=C/c1ccco1)NC(=O)c1cccc(Br)c1", "note": "(stereo not drawn)", "Potency": "inconclusive [inhibitor, partial curve]"}
{"smiles": "Cc1ccc(C(=O)N/N=C\\c2cc(Br)c(Br)o2)cn1", "Potency": "active: 22.4 µM"}
{"smiles": "CCOC(=O)N1CCN(Cc2nc(N)nc(Nc3ccc(Oc4ccccc4)cc3)n2)CC1", "Potency": "inconclusive [inhibitor, full curve]"}
{"smiles": "CN(C)/C=C1/Nc2ccccc2C1=O", "Potency": "inconclusive [inhibitor, partial curve]"}
{"smiles": "O=C1NC(=O)N(c2ccc3c(c2)OCO3)C(=O)/C1=C\\c1ccsc1", "Potency": "inconclusive [inhibitor, full curve, poor fit]"}
{"smiles": "CCOC(=O)N1CCN(C2CCCN(C(=O)c3ccccc3C(F)(F)F)C2)CC1", "note": "(stereo not drawn)", "Potency": "inconclusive [inhibitor, full curve]"}
{"smiles": "N#Cc1ccc(C(=O)NC23CC4CC(CC(C4)C2)C3)cc1", "Potency": "inconclusive [inhibitor, single point]"}
{"smiles": "CCOC(=O)CSc1nnc(NC(=O)CN2CCN(C=O)CC2)s1", "Potency": "inconclusive [inhibitor, partial curve]"}
{"smiles": "Cc1cc(C(=O)CCl)c(C)n1CCc1ccccc1", "Potency": "active: 8.91 µM"}
{"smiles": "Cc1ccc(C)c2[nH]c(=O)c(CN(CCN3CCCC3)C(=O)Nc3cccc(Cl)c3)cc12", "Potency": "inconclusive [inhibitor, full curve]"}
{"smiles": "CCC(NC(=O)OCc1ccccc1)C(=O)Oc1ccc2ccc(=O)oc2c1", "note": "(stereo not drawn)", "Potency": "inconclusive [inhibitor, partial curve]"}
{"smiles": "CCN1CCN(C(=O)COc2ccc3c(c2)C(=O)CC2(CCN(C(C)=O)CC2)O3)CC1", "activity change, negative = inhibition": "inactive: -6.01%"}
{"smiles": "CCSc1nnc(NC(=O)c2cccnc2)s1", "activity change, negative = inhibition": "inactive: 2.44%"}
{"smiles": "O=C(Cn1cnc2c(nnn2-c2cccc(Cl)c2)c1=O)NCc1ccccc1", "activity change, negative = inhibition": "inactive: 3.89%"}
{"smiles": "O=C(NC1CCCCCC1)c1ccc(CS(=O)c2cccc(Cl)c2)o1", "note": "(stereo not drawn)", "Potency": "inconclusive [inhibitor, full curve, poor fit]"}
{"smiles": "Cc1ccc(S(=O)(=O)c2c(N)n(Cc3ccco3)c3nc4ccccc4nc23)cc1C", "Potency": "active: 10 µM"}
{"smiles": "Cc1ccc(NC(=O)/C=C/C(=O)O)c([N+](=O)[O-])c1", "Potency": "inconclusive [inhibitor, partial curve]"}
{"smiles": "Brc1cc(Br)c2nc(-c3ccc(N4CCOCC4)cc3)ccc2c1", "Potency": "inconclusive [inhibitor, partial curve]"}
{"smiles": "Cc1c(C(=O)N2CCCC2)oc2c1-c1nn(CC(=O)NCCCN3CCCCC3C)cc1CC2", "note": "(stereo not drawn)", "Potency": "inconclusive [inhibitor, full curve, poor fit]"}
{"smiles": "CC(C)(C)c1nnc(NC(=O)c2ccc3c(c2)OCO3)s1", "activity change, negative = inhibition": "inactive: 4.41%"}
{"smiles": "O=C(CCc1nnc2ccc(NCc3ccco3)nn12)Nc1ccc(F)cc1", "Potency": "inconclusive [inhibitor, full curve]"}
{"smiles": "COc1ccc(C(=O)NC(=S)NC2CCCCC2)cc1", "Potency": "active: 1.41 µM"}
{"smiles": "Cc1cccc(CN2C(=O)c3ccccc3S(=O)(=O)c3ccc(C(=O)NC4CCCCC4)cc32)c1", "Potency": "inconclusive [inhibitor, single point]"}
{"smiles": "Cc1ccc(OCC(=O)N(Cc2ccc(N(C)C)cc2)C2CCS(=O)(=O)C2)cc1", "note": "(stereo not drawn)", "Potency": "inconclusive [inhibitor, full curve, poor fit]"}
{"smiles": "Cc1ccc(C(=O)CC2(O)C(=O)N(Cc3ccc4c(c3)OCO4)c3ccccc32)cc1", "note": "(stereo not drawn)", "Potency": "inconclusive [inhibitor, single point]"}
{"smiles": "COc1ccc(CCn2c(NN)nc3c2c(=O)[nH]c(=O)n3C)cc1", "Potency": "inconclusive [inhibitor, partial curve]"}
{"smiles": "N#CCCS(=O)(=O)c1nnnn1-c1ccccc1", "Potency": "active: 7.08 µM"}
{"smiles": "CCOC(=O)Cc1ccc2sc(-c3ccccc3)nc2c1", "activity change, negative = inhibition": "inactive: -11.6%"}
{"smiles": "CCS(=O)(=O)Nc1c(C(=O)O)[nH]c2ccccc12", "Potency": "inconclusive [inhibitor, single point]"}
{"smiles": "C[C@H](NC(=O)Cc1ccccc1)C(=O)N1CCC2(CC1)NCCc1[nH]cnc12", "Potency": "inconclusive [inhibitor, full curve, poor fit]"}
